# Screen size: about 52,000 compounds; about 1,700 (3.3%) were called active. No stated cut-off is given here; in the data, active means survival mostly below about 52% (no sharp cut-off); inactive means mostly above about 56%. The list shows a part of the results.
# System: Wild type
# Assay: S. aureus survival, RN4220 and DeltatarO strains – OD600, teichoic acid synthesis inhibitors, primary screen (AID 463173)
# Settings: S. aureus RN4220 wild type/DeltatarO growth, OD600, 18 h, stronger effect = lower value, screened at 18.75 µg/mL (by protocol)
row,Compound,survival
1,CCCCN(CC)CCNC(=O)CN1C(=O)COc2ccc(S(=O)(=O)N3CCOCC3)cc21,inactive: 79%
2,O=S(=O)(NCC(c1ccco1)N1CCN(c2ccc(F)cc2)CC1)c1cc(F)ccc1F (stereo not drawn),inactive: 117%
3,CCc1c(C)sc(NC(=O)c2cc(-c3ccc(OC)c(OC)c3)on2)c1C#N,inactive: 152%
4,CC(C)(C)n1cnc2cc(N=Cc3ccccc3O)ccc21,inactive: 112%
5,COc1ccc(S(=O)(=O)N2CCCCC2)cc1C(=O)NC1CCS(=O)(=O)C1 (stereo not drawn),inactive: 78%
6,CCOc1ccccc1CNC(=O)CN1C(=O)c2cccnc2Oc2ccc(Cl)cc21,inactive: 72%
7,Cn1cccc1C(=O)c1cccc(Br)c1,inactive: 109%
8,CCS(=O)(=O)N1CCC2(CC1)OC(=O)C(C)=C2C(=O)NCc1ccc(OC)c(OC)c1,inactive: 70%
9,O=C(Nc1ccccc1)c1ccc(Cl)c(S(=O)(=O)Nc2ccccc2)c1,inactive: 68%
10,Cc1ccc(C(=O)c2cn(Cc3ccccc3)c3c(F)cc(F)cc3c2=O)cc1,inactive: 89%
11,Cc1cc(Nc2cccc(Cl)c2)nc2ccc(NC(=O)Cc3c(F)cccc3Cl)cc12,inactive: 79%
12,CCC1Oc2ccccc2N(CC(=O)NCc2ccccc2)C1=O (stereo not drawn),active: -3%
13,COc1ccc(N2CCN(C(=O)c3cn(C)c4ccc(S(=O)(=O)N5CCOCC5)cc4c3=O)CC2)cc1,inactive: 79%
14,COc1ccc2nc(N(Cc3cccnc3)C(=O)c3ccc(Cl)cc3)sc2c1,inactive: 72%
15,Cn1c(=O)c(=O)n(C)c2cc(N3CCCC3)c(NC(=O)c3ccccc3Cl)cc21,inactive: 86%
16,CC(NC(=O)/C=C/c1ccccc1)C1COc2ccccc2O1 (stereo not drawn),inactive: 109%
17,C/C(=N/NC(=O)c1c(N)no[n+]1[O-])c1cccs1,inactive: 98%
18,CCn1c(=O)c2sccc2n2c(CCCC(=O)Nc3ccc(Oc4ccccc4)cc3)nnc12,inactive: 94%
19,CCOc1ccccc1CNC(=O)CN1C(=O)c2cccnc2Oc2ccc(C)cc21,inactive: 136%
20,O=C(Nc1ccc(Br)cc1)c1cc(S(=O)(=O)N2CCc3ccccc32)ccc1F,inactive: 131%

row,Compound,survival
1,CCn1c(N2CCN(S(C)(=O)=O)CC2)nc2ccccc21,inactive: 95%
2,CCN1C(=O)C2(c3ccccc31)c1c(oc3ccccc3c1=O)C(=O)N2CCOC (stereo not drawn),inactive: 85%
3,COc1ccc(OC)c(NC(=O)N2CCC3(CC2)Oc2ccccc2C(=O)N3Cc2ccccc2F)c1,inactive: 79%
4,Cc1ccc(N(O)C(=O)Nc2ccccc2)cc1,inactive: 119%
5,COc1ccc(-c2noc(CC(=O)N(C)c3cc(Cl)c(OC)cc3OC)n2)cc1,inactive: 80%
6,CCCCN(C)C(=O)c1ccc2c(c1)NC(=O)C(CC(C)C)N2 (stereo not drawn),inactive: 77%
7,Cc1ccc(NC(=O)c2nc(S(C)(=O)=O)ncc2N(Cc2ccco2)Cc2ccco2)cc1,inactive: 91%
8,Cc1c(C(=O)Nc2ccccc2F)sc2nc3n(c(=O)c12)CCC3,inactive: 83%
9,Cc1cc(C)cc(OCC(=O)N(Cc2ccco2)Cc2ccccc2Cl)c1,inactive: 82%
10,COc1ccc(NC(=O)CN2C(=O)C(=O)c3ccccc32)c(OC)c1,inactive: 70%
11,Cc1ccc(-c2nc(-c3cccs3)c(-c3cccs3)[nH]2)cc1,inactive: 76%
12,CN(Cc1ccccc1)c1nc2c(S(=O)(=O)c3ccccc3)nnn2c2ccsc12,inactive: 87%
13,Cc1ccc(S(=O)(=O)c2nnn3c2nc(NC2CCCCC2)c2sccc23)cc1C,inactive: 80%
14,COc1ccc(CNC(=O)CCc2c(C)nc3c4cccnc4nn3c2C)cc1,inactive: 89%
15,CCc1ccccc1NC(=O)Cn1nnc(C(=O)NCc2cccc(OC)c2)c1N,inactive: 79%
16,COc1ccc(CC(=O)Nc2nnc3n2CCS3)cc1OC,inactive: 91%
17,COc1ccc(C)cc1-n1c(SCC(=O)NCc2ccco2)nc2c([nH]c3ccccc32)c1=O,inactive: 77%
18,Cc1ccc(NC(=O)Cn2c(=O)n(CC(=O)NCCc3ccccc3)c(=O)c3ccccc32)cc1,inactive: 82%
19,CC1CCc2nc3ncn(Cc4cccc(F)c4)c(=O)c3cc2C1 (stereo not drawn),inactive: 66%
20,O=C(Nc1ncc(Cc2ccccc2Cl)s1)c1ccc2c(c1)CC(c1ccccc1)OC2=O (stereo not drawn),inactive: 79%

row,Compound,survival
1,CNC(=O)C1CCC(Cn2c(=O)c3sccc3n(CC(=O)Nc3ccccc3)c2=O)CC1 (stereo not drawn),inactive: 63%
2,CCCCN(CC)CCCNC(=O)c1nn(-c2ccc(OC)cc2)c(=O)c2c1c1ccccc1n2C,inactive: 74%
3,Cc1ccc(CCNC(=O)CCCn2c(=O)c3cccn3c3ccc(F)cc32)cc1,inactive: 41%
4,CCCCN(CC)CCCNC(=O)c1sc2nc3n(c(=O)c2c1C)CCCCC3,inactive: 87%
5,COCCNC(=O)c1cc(-c2cccc(Cl)c2)on1,inactive: 136%
6,O=C(CN1C(=O)COc2ccc(Cl)cc21)Nc1cccc(C(=O)O)c1,inactive: 67%
7,CCOC(=O)c1ccc(N2C(=O)c3n[nH]c(C)c3C2c2ccc(CC)cc2)cc1 (stereo not drawn),inactive: 82%
8,Cc1cc(=O)n(Cc2ccccc2)c(=O)n1Cc1ccccc1,inactive: 94%
9,CCc1ccccc1NC(=O)Cn1nc(C)c2nn(-c3ccc(Cl)cc3)c(C)c2c1=O,inactive: 124%
10,COc1cc2[nH]c(=O)n(CCCC(=O)N(C)Cc3ccccc3)c(=O)c2cc1OC,inactive: 68%
11,Cc1ccc(-n2nc(C(=O)N(C)c3ccccc3Cl)c3c4ccccc4n(C)c3c2=O)cc1,inactive: 84%
12,CC1CCCCC1NC(=O)CN1CCC(NC(=O)Nc2ccccc2)CC1 (stereo not drawn),inactive: 100%
13,Cc1ccc(NC(=O)Cn2cc(S(=O)(=O)Cc3ccccc3)c3ccccc32)cc1C,inactive: 128%
14,COC(=O)c1cc2occc2n1Cc1nc(-c2ccc(Cl)cc2)oc1C,inactive: 91%
15,CCc1ccc(S(=O)(=O)c2cn(C)c3ccc(C)cc3c2=O)cc1,inactive: 98%
16,O=C(CSc1ncc(-c2ccccc2)[nH]1)Nc1cccc(O)c1,inactive: 140%
17,CC(NC(=O)CN1C2CCC1CC(=O)NC2)c1ccccc1 (stereo not drawn),inactive: 114%
18,CCOCCCNC(=O)CN1C(=O)CCn2nc(-c3cccn3C)cc21,inactive: 59%
